The values that follow come from PubChem BioAssay AID1508624 (National Center for Advancing Translational Sciences (NCATS), 2021).

Structures are written as SMILES. Screen size: about 48,000 compounds; about 120 (0.25%) were called active. Inconclusive results (about 4%) are left out. Calls come from the whole dose curve; as a rule, active = well fitted activation curve with a large enough effect; inconclusive = small, poorly fitted or top-dose-only effect, or another doubt; inactive = no such curve, though single readings can be large or run the other way. This is one part of the list.
Potency is the fitted concentration of half-maximal effect.

This experiment is described as follows: Primary qHTS for Identification of Small Molecule Activators of Huntingtin-Antisense Promoter Activity. Note: nearly all actives have a fitted effect of over 55% in size. Particulars: HEK293 HTT-AS promoter firefly luciferase reporter (activity 0% = vehicle and -100% = no light), 24 h; series mostly up to 57.5 µM; activity change, positive = activation: at the top concentration. In short, it runs like this: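 HEK293 Fluc reporter, 2,500 cells/well, 24 h pre-culture; cpds up to 57.5 uM final, 24 h 37 degrees C; Dual-Glo, 10 min RT; normalized vehicle = 0%, zero RLU = -100%.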
For the compound `COCC(C)NS(=O)(=O)c1ccc(N2CCCCS2(=O)=O)cc1` (stereo not drawn), the “activity change, positive = activation” value was inactive: -14.5%.

As to `CCOC(=O)c1ccc(NC(=O)c2sc3nc4n(c(=O)c3c2C)CCC4)cc1`, the “activity change, positive = activation” value is inactive: -19.3%.

Regarding `CCN1C(C(=O)c2ccccc2)=C(NC(=O)c2ccc(Cl)cc2)c2ccccc2S1(=O)=O`, the “activity change, positive = activation” value is inactive: -26%.

Consider `COc1cc(OC)cc(-c2ccc3ncc4ccc(=O)n(-c5ccc(N6CCNCC6)c(C(F)(F)F)c5)c4c3c2)c1`, for which the “activity change, positive = activation” value was inactive: -33.7%.

`O=C(O)C(=O)Nc1cccc(C2=NN=N[N]2)c1`: the “activity change, positive = activation” value is inactive: -11.9%.

As for `CC(C)CNC(=O)C(=O)Nc1c2c(nn1-c1ccc(Cl)cc1)CSC2`, the “activity change, positive = activation” value is inactive: -20.6%.

Take `CC(=O)c1ccc(NC(=O)CSc2nccn2C2CCCC2)cc1`: the “activity change, positive = activation” value is inactive: 9.17%.

Consider `Cc1cccc(N2CCN(c3ccc4cc(S(=O)(=O)N5CCC(C)CC5)ccc4n3)CC2C)c1` (stereo not drawn), for which the “activity change, positive = activation” value is inactive: -19.4%.

For `CCOc1ccc(NC(=O)CSc2nc3ccccc3nc2N2CCOCC2)cc1`, the “activity change, positive = activation” value was inactive: 0%.

As to `COc1ccc(CNC(=O)c2cc3cccc4c3n2CC(C)S4)cc1` (stereo not drawn), the “activity change, positive = activation” value was inactive: -15.8%.

Regarding `O=c1c(N2CCN(c3ccc(F)cc3)CC2)csc2ccc(F)cc12`, the “activity change, positive = activation” value is inactive: 2.97%.

On to `COc1ccc(S(=O)(=O)NC(C)(C)CO)cc1-c1nnc2c3ccccc3c(C)nn12`, for which the “activity change, positive = activation” value is inactive: -4.56%.

As for `CC(C)CC(=O)Nc1cccc(-c2cn3cccnc3n2)c1`, the Potency is active: 15.8 µM.

On to `CCCn1c(=O)c2sccc2n2c(CCCC(=O)N3CCN(c4ccc(OC)cc4)CC3)nnc12`, for which the “activity change, positive = activation” value was inactive: -23.2%.

Regarding `CC1CCN(S(=O)(=O)c2ccc3nc(Nc4cccc(F)c4)ccc3c2)CC1`, the “activity change, positive = activation” value is inactive: -47.5%.

As to `C[C@@H]1C(=O)O[C@H]2CC34[C@H]5C[C@@H](C(C)(C)C)C36[C@H](OC(=O)[C@@H]6O)O[C@@]4(C(=O)O5)[C@]21O` (stereo partly drawn), the “activity change, positive = activation” value is inactive: -7.09%.

As to `Cc1nn(-c2cccc(Cl)c2)c2nc(-c3cccnc3)cc(C(F)(F)F)c12`, the “activity change, positive = activation” value is inactive: -4.68%.

Regarding `COc1ccc(C)cc1NC1(c2ccccc2)C(=O)c2ccccc2C1=O`, the “activity change, positive = activation” value is inactive: -7.15%.

Consider `COc1ccc(OC)c(N(C)S(=O)(=O)c2ccc3c(c2)NC(=O)CC(=O)N3)c1`, for which the “activity change, positive = activation” value is inactive: -6.49%.

In the case of `COc1ccc2nc(N3CCN(C(=O)CS(=O)(=O)c4ccc(C)cc4)CC3)sc2c1`, the “activity change, positive = activation” value was inactive: -7.41%.

As for `CN(C)c1ccc(NC(=O)CC(NCc2cccnc2)C(=O)O)cc1` (stereo not drawn), the “activity change, positive = activation” value was inactive: 0.167%.

As to `Cc1ccccc1NC(=O)c1sc2nc3n(c(=O)c2c1C)N=C(c1ccccc1)CS3`, the “activity change, positive = activation” value was inactive: -1.69%.

Take `COc1cccc(CNc2sc3c(c2C(=O)Nc2ccc(OC)cc2OC)CCC3)c1`: the “activity change, positive = activation” value is inactive: -8.12%.

As for `Cc1ccc(NC(=O)CCCn2c(=O)c3cccn3c3cccnc32)c(C)c1`, the “activity change, positive = activation” value is inactive: -16.2%.

Consider `CCC(Sc1nc2nccnc2c(=O)n1Cc1ccc(Cl)cc1)C(=O)NC1CCCCC1` (stereo not drawn), for which the “activity change, positive = activation” value was inactive: -20.5%.

Take `O=c1c(-c2cc(-c3ccccc3)nc3c2COc2ccc(Cl)cc2-3)coc2ccccc12`: the “activity change, positive = activation” value was inactive: -4.25%.

With `Cc1ccc(-c2cnc(C3CC3)o2)cc1S(=O)(=O)Nc1ccc(F)cc1Cl`, the “activity change, positive = activation” value is inactive: -29.9%.

Consider `CCOc1ccc(NC(=O)c2cnn3c2NC(C)=C(C(=O)Nc2ccc(Cl)cc2)C3c2ccc(OC)c(OC)c2)cc1` (stereo not drawn), for which the “activity change, positive = activation” value is inactive: -10.2%.

Take `CCOC(=O)c1ccc(O)cc1`: the “activity change, positive = activation” value is inactive: 13.1%.

With `COc1ccc(N(C)C(=O)c2oc(=O)c3ccccc3c2-c2ccc(C)cc2)c(OC)c1`, the “activity change, positive = activation” value is inactive: -35.1%.

Take `N#Cc1c(-n2ncnc2-c2ccccc2Cl)sc2c1CCCCC2`: the “activity change, positive = activation” value is inactive: -16.9%.

Turning to `O=C(CCC1N=C2c3ccccc3N=C(SCc3ccc(F)cc3)N2C1=O)N1CCN(c2ccccc2)CC1` (stereo not drawn), the “activity change, positive = activation” value was inactive: -4.78%.

Consider `COc1ccc(N2CCN(C(=O)CCCCn3c(=O)[nH]c4ccsc4c3=O)CC2)cc1`, for which the “activity change, positive = activation” value was inactive: -18.4%.

Regarding `Clc1ccc(-c2nc3ncccn3c2Nc2ccc3c(c2)OCCO3)cc1`, the “activity change, positive = activation” value is inactive: 2.84%.

Take `CC(C)c1ccc(CNC(=O)c2ccc(N3CCCC3)c(NC(=O)NCc3ccc(F)cc3)c2)cc1`: the “activity change, positive = activation” value was inactive: -8.44%.

Regarding `CCOC(=O)C1CCN(C(c2ccc(C)cc2)c2sc3nc(-c4ccco4)nn3c2O)CC1` (stereo not drawn), the “activity change, positive = activation” value is inactive: -4.7%.

With `CCOc1ccc(/C=C(\C#N)C(=O)Nc2sc3c(c2C(=O)OC)CCC3)cc1OC`, the “activity change, positive = activation” value was inactive: -1.08%.

For the compound `Cc1cccc(Nc2cc(C)nc3nc(-c4ccccc4)nn23)c1`, the “activity change, positive = activation” value was inactive: -22.1%.

For the compound `CC1=C(C(=O)Nc2cccc(F)c2)C2(CCCCC2)OC1=O`, the “activity change, positive = activation” value is inactive: -18.2%.

`CCOCCCNC(=O)CN1C(=O)COc2ccc(S(=O)(=O)N3CCOCC3)cc21`: the “activity change, positive = activation” value was inactive: -0.074%.

As to `COc1ccc(-c2cc(C(F)(F)F)nc(SCCC(=O)Nc3ccc(F)cc3F)n2)cc1`, the “activity change, positive = activation” value is inactive: -14.4%.

For the compound `CC(=O)c1ccc(NC(=O)CSc2nnc3c(n2)[nH]c2ccccc23)cc1`, the “activity change, positive = activation” value is inactive: -17.4%.

On to `O=C(CSc1ccc2nc(-c3ccccc3)cn2n1)Nc1ccccc1`, for which the “activity change, positive = activation” value is inactive: -88.3%.

On to `O=C(Nc1ccc(F)cc1F)c1ccc(-n2cnc3cccnc32)cc1`, for which the “activity change, positive = activation” value was inactive: 12.5%.

Take `Cc1nc(-c2ccc(F)cc2)sc1CCNC(=O)c1ccccc1C(F)(F)F`: the “activity change, positive = activation” value is inactive: -12.4%.

As for `Cc1ccc2oc(C(=O)NCC(c3ccc(Cl)cc3)N3CCOCC3)c(C)c2c1` (stereo not drawn), the “activity change, positive = activation” value was inactive: -25.1%.

With `Cc1ccc(CNC(=O)c2cc3c(=O)n4cccc(C)c4nc3s2)cc1`, the “activity change, positive = activation” value was inactive: 3.64%.

Take `Cc1ccc(CNC(=O)CN2C(=O)C3CCCCN3c3ccc(C(=O)N(C)C)cc32)cc1` (stereo not drawn): the “activity change, positive = activation” value was inactive: -4.31%.
